Assay results: publication PMC6919601, “Identification of Plasmodium dipeptidyl aminopeptidase allosteric inhibitors by high throughput screening” (PLoS ONE, 2019)
The campaign covered roughly 110,000 compounds. About 230 (0.21%) showed an effect of 50% or more. Some of the results follow.

Target: DPAP1 (Plasmodium falciparum, UniProt Q8IIJ9)
Assay: primary screen, percent inhibition; read by cleavage of a fluorogenic dipeptide substrate; higher = more effect of the substance
Design: species or system P. falciparum D10 trophozoite lysates; single well
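Note: 30 min substrate incubation versus DMSO and 10 µM JCP410 controls.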

DPAP1, sequence (Q8IIJ9 whole entry, looked up): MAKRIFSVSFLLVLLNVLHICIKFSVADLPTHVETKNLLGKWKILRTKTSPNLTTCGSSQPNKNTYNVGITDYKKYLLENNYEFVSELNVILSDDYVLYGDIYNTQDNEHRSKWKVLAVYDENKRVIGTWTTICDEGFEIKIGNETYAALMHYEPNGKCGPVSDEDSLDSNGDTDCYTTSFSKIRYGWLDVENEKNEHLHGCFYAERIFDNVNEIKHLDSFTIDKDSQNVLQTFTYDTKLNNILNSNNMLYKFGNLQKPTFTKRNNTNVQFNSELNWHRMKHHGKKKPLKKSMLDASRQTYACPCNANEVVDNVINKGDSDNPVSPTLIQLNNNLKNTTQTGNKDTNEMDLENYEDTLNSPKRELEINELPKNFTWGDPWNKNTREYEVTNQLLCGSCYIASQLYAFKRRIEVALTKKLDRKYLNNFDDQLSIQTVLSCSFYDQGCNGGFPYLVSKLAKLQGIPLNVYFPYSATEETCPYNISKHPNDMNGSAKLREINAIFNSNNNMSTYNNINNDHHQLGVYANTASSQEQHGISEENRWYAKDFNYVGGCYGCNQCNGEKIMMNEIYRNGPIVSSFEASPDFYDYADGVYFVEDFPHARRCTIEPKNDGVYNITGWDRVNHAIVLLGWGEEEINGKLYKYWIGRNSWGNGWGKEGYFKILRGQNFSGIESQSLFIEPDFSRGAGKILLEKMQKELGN

Going from `CC(C)N1C(=O)/C(=C/Nc2ccc(Cl)cc2Cl)C(=O)N(Cc2ccco2)C1=O` to `Cc1ccc(NC(=O)CN2C(=O)N/C(=C/c3sccc3C)C2=O)cc1`, the “% Inhibition @ 10 uM” value falls from 0.751% to -3.09%.

Compared with `COc1cccc(C(=O)C2=C(O)C(=O)N(CCc3ccccc3)C2c2ccc(O)cc2)c1` (stereo not drawn), `O=C(c1cc(=O)c2cc(Cl)ccc2o1)N(Cc1ccccc1)c1ccccn1` is higher in “% Inhibition @ 10 uM” value: -2.46% for the first, 3.51% for the second.

First: CCOCCCN1C(=O)CN(C2CCCCCC2)C(=O)C1c1ccc(C)cc1 (stereo not drawn)
Second: CCOCCCn1c(SCC(=O)c2ccccc2)nc2c(sc3ccccc32)c1=O
The “% Inhibition @ 10 uM” value of the first is lower: -4.06% for the first, 4.17% for the second.

Going from `Cc1ccc2c(c1)C(C)CC(C)(C)N2C(=O)CSc1nc(C)cc(C)n1` (stereo not drawn) to `CCc1nc2ccc(C(=O)N3CC(C)CC(C)C3)cc2nc1CC` (stereo not drawn), the “% Inhibition @ 10 uM” value rises from 0.475% to 6.71%.

Going from `C=CCn1c(N2CCCCC2)nc2c1c(=O)n(C)c(=O)n2C` to `Cc1ccc(NC(=O)CSc2nc3c(c(=O)n(C)c(=O)n3C)n2C)cc1C`, the “% Inhibition @ 10 uM” value rises from -1.07% to 2.38%.

Going from `CC(=O)NCCc1c[nH]c2ccc(C)cc12` to `Cc1ccc2cnn(CCCC(=O)NCCc3ccccc3)c2c1`, the “% Inhibition @ 10 uM” value falls from 3.66% to -1.11%.

First: Cc1c2cnn(CC(=O)NCCN3CCOCC3)c(=O)c2c(C)n1Cc1ccc(F)cc1
Second: COc1ccc(C(=O)Nc2ccc(CN3CCOCC3)cc2)cc1Br
The “% Inhibition @ 10 uM” value of the first is higher: 1.22% for the first, -2.85% for the second.

First: Cc1ccnc(NC(=O)c2sc3ccccc3c2Cl)c1
Second: CC1=C(C(=O)Nc2ccccc2)C(c2ccc(Br)cc2)n2ncnc2N1 (stereo not drawn)
The “% Inhibition @ 10 uM” value of the first is higher: 5.23% for the first, -3.39% for the second.

First: N#CCNC(=O)[C@H](Cc1cc(Cl)c(O)c(Cl)c1)NC(=O)c1ccccc1Cl
Second: OCCNCc1cc(Cl)ccc1OCc1ccccc1Cl
The “% Inhibition @ 10 uM” value of the first is higher: 4.63% for the first, -2.19% for the second.

Going from `O=C(Nc1nc2c(cc3c4c(cccc42)CC3)s1)c1ccc(S(=O)(=O)N2CCCCC2)cc1` to `NS(=O)(=O)c1ccc(CNC(=O)c2ccc(F)cc2)cc1`, the “% Inhibition @ 10 uM” value falls from -2.13% to -5.7%.

First: COc1ccc(/C=C/c2[nH]c(=O)[nH]c(=O)c2[N+](=O)[O-])cc1Br
Second: COc1cc(OC)c(OC)cc1/C=C/C(=O)c1cc2cc(Cl)ccc2oc1=O
The “% Inhibition @ 10 uM” value of the first is lower: 0.162% for the first, 6.84% for the second.

Compared with `CCOc1cccc2cc(-c3nc(-c4ccncc4)no3)c(=O)oc12`, `Cc1c(C)n(Cc2ccc(Cl)cc2)c2ccc(C(=O)NCC3CCCO3)cc12` (stereo not drawn) is lower in “% Inhibition @ 10 uM” value: 0.292% for the first, -7.04% for the second.

Compared with `CC1CCCN(c2ccc3nonc3c2[N+](=O)[O-])C1` (stereo not drawn), `O=[N+]([O-])c1cn(-c2cccc(O)c2)cn1` is lower in “% Inhibition @ 10 uM” value: 2.46% for the first, 1.42% for the second.

Going from `COc1ccc(S(=O)(=O)N2CCN(c3cc(Cl)ccc3C)CC2)cc1OC` to `COc1ccc(N(CC(=O)Nc2ccc(C)cc2C)S(C)(=O)=O)cc1OC`, the “% Inhibition @ 10 uM” value falls from 1.27% to -0.185%.

Compared with `O=C(Cn1c(C(F)(F)F)nc2ccccc21)NCCCn1ccnc1`, `O=C(Cn1nc(-c2ccccc2)ccc1=O)NCc1cccs1` is higher in “% Inhibition @ 10 uM” value: -7.17% for the first, 2.18% for the second.

Compared with `CC(=O)O/N=C(\N)c1ncon1`, `CCn1ncc(C2=NOC(C(=O)N3CCC(C(N)=O)CC3)C2)c1C` (stereo not drawn) is higher in “% Inhibition @ 10 uM” value: -9.24% for the first, -6.68% for the second.

Going from `CC1CCCC(N(Cc2ccco2)C(=O)NCc2noc3ccccc23)C1C` (stereo not drawn) to `Cc1c(C(=O)NCc2ccco2)sc2ncn(CC(=O)N3CCC(C)CC3)c(=O)c12`, the “% Inhibition @ 10 uM” value falls from 4.03% to -0.458%.

First: CC1CC(C)CN(C(=O)C2CCCN(C(=O)c3cc4sccc4n3C)C2)C1 (stereo not drawn)
Second: CC1CCCC(N2CC(C)OC(C)C2)C1 (stereo not drawn)
The “% Inhibition @ 10 uM” value of the first is lower: -5.72% for the first, 3.44% for the second.

Compared with `CCCNC(=O)c1nnc(Cc2ccc3c(c2)OCO3)o1`, `CCOC(=O)C1CCN(Cc2ccc(F)c(F)c2)CC1` is higher in “% Inhibition @ 10 uM” value: -3.49% for the first, 3.25% for the second.

Compared with `O=C(CNS(=O)(=O)c1ccc(Cl)cc1)NCC1CCCO1` (stereo not drawn), `OCCc1ccc(-c2ccc(Cl)cc2)o1` is lower in “% Inhibition @ 10 uM” value: -4.86% for the first, -7.58% for the second.

Compared with `CCc1nnc(NC(=O)CSc2ccc3nnc(-c4ccc(C)cc4)n3n2)s1`, `Cc1ccc(Cn2nnc3c(=O)n(Cc4ccc(C(F)(F)F)cc4)cnc32)cc1` is higher in “% Inhibition @ 10 uM” value: -3.21% for the first, -2.16% for the second.

Going from `Cc1cc(C)n(C(=O)c2ccc(COc3c(F)c(F)cc(F)c3F)o2)n1` to `COCc1cc(C)n(CC(=O)Nc2ccc(C(C)=O)cc2)c(=O)c1C#N`, the “% Inhibition @ 10 uM” value rises from -1.33% to 1.35%.

Going from `C=CCn1c(SCC(=O)Nc2sc3c(c2C(N)=O)CCC3)nc2sc3c(c2c1=O)CCC3` to `CC1=C(C(=O)OCc2ccccc2)C(c2cccc(Cl)c2Cl)C2=C(O)CCCC2=N1` (stereo not drawn), the “% Inhibition @ 10 uM” value rises from -2.68% to -0.233%.

Going from `CC(=O)C1=C(C(F)(F)F)C(=O)OC1(C)N1CCOCC1` (stereo not drawn) to `O=C(N/C(=C\c1ccc(F)cc1)C(=O)N1CCOCC1)c1ccco1`, the “% Inhibition @ 10 uM” value rises from -1.72% to 2.38%.

Compared with `Cc1ccc2c(c1)-c1c(cnn1CC(=O)NCCOC13CC4CC(CC(C4)C1)C3)CO2`, `Cc1nc2cc(-c3ccccc3)nn2c(C)c1CCC(=O)NCc1ccccc1Cl` is higher in “% Inhibition @ 10 uM” value: -5.03% for the first, 4.54% for the second.

First: COC(=O)C1=CN(Cc2ccc(OC)cc2)C=C(C(=O)OC)C1c1cccc(Cl)c1
Second: COc1ccc(/C(O)=C/C=N/c2cccc(Cl)c2)cc1OC
The “% Inhibition @ 10 uM” value of the first is higher: 7.93% for the first, 0.851% for the second.

First: Cc1nc(CN2CCN(Cc3csc(C)n3)CC2)cs1
Second: COc1cc(CN2CCN(Cc3cccc(Br)c3)CC2)cc(OC)c1O
The “% Inhibition @ 10 uM” value of the first is lower: -4.01% for the first, 0.131% for the second.

Going from `CC(=O)Nc1cccc(NC(=O)c2ccc([N+](=O)[O-])cc2)c1` to `CN(c1ccc(C(=O)Nc2ccc(Br)cc2)cc1)S(C)(=O)=O`, the “% Inhibition @ 10 uM” value rises from -1.38% to 18.3%.

Going from `Cc1c(C)n(Cc2ccccc2)c2ccc(C(=O)OCCCN(C)C)cc12` to `COc1cccc(-n2cnc3sc(C)c(C)c3c2=O)c1`, the “% Inhibition @ 10 uM” value falls from 6.48% to -1.96%.

Compared with `CCC(C)N1CCN(Cc2cc(OC)c(OC)c(OC)c2)CC1` (stereo not drawn), `COc1ccc(CNCC(C)NCc2ccc(OC)c(OC)c2)cc1OC` (stereo not drawn) is higher in “% Inhibition @ 10 uM” value: -14.4% for the first, 1.31% for the second.

First: O=C1CC(c2ccccc2C(F)(F)F)c2ccc3ccccc3c2N1 (stereo not drawn)
Second: Nc1c(-c2nc3ccccc3[nH]2)nnn1-c1ccc(F)c(Cl)c1
The “% Inhibition @ 10 uM” value of the first is lower: -2.35% for the first, 0.776% for the second.

In the case of `CCOC(=O)c1c(N)sc2c(N)cccc12`, the “% Inhibition @ 10 uM” value is reported as -0.415%.
